Measurements published in US4117136A, “Systemic antimicrobial quinolines for plant disease” (Sumitomo Chemical Company, Ltd., priority 1976, dated 1978).
Structures can show the parent of a compound that is named as a salt. Where two headings read alike, the source gives them in different places.

How the values were obtained:
[1] = system: Soft Rot of Chinese Cabbage Caused by E. aroideae; format: in vivo; settings: for Severity of Disease: spray, 3 days before inoculation; for effect for preventing the occurrence of soft rot disease of Chinese cabbage: result in words, Erwinia aroideae, Table 2
Source text: […] Two flower pots with two plants in each were used for each treatment.

[2] = system: Soft Rot of Chinese Cabbage Caused by E. carotovora; format: in vivo, Erwinia carotovora (on Chinese cabbage); settings: for effectiveness in preventing and eradicating soft rot disease of Chinese cabbage: result in words, E. carotovora; for Severity of Disease: sprayed at 500 ppm 16 hours after inoculation

| Compound | Severity of Disease ([1]; 100 ppm active ingredient) [%] | Severity of Disease ([1]; 500 ppm active ingredient) [%] | effectiveness in preventing and eradicating soft rot disease of Chinese cabbage [2] | Severity of Disease [2] | effect for preventing the occurrence of soft rot disease of Chinese cabbage [1] | Severity of Disease ([1]; 200 ppm active ingredient) [%] |
| --- | --- | --- | --- | --- | --- | --- |
| CCn1cc(C(=O)OC)c(=O)c2cc3c(cc21)OCO3 [(2)] | 7 | 0 | highly effective | 12 |  |  |
| COn1cc(C(=O)O)c(=O)c2cc3c(cc21)OCO3 [(3)] | 9 | 0 |  | 0 |  |  |
| O=C(O)c1cn(CCO)c2cc3c(cc2c1=O)OCO3 [(5)] | 14 | 0 |  |  |  |  |
| O=C(O)c1cn(CC(F)(F)F)c2cc3c(cc2c1=O)OCO3 [(6)] | 0 | 0 |  | 0 |  |  |
| CCOC(=O)c1cn(CCF)c2cc3c(cc2c1=O)OCO3 [(8)] | 0 | 0 | highly effective | 8 |  |  |
| COn1cc(C(=O)O)c(=O)c2c3sc(=O)n(C)c3ccc21 [(10)] | 12 | 0 |  | 0 |  |  |
| CCn1c(C)c(C(=O)O)c(=O)c2cc3c(cc21)OCO3 [(11)] | 4 | 0 | highly effective | 12 |  |  |
| CCn1cc(C(=O)O)c(=O)c2cc3c(cc21)OCO3 [Compound (1)] | 0 | 0 |  | 0 |  |  |
| O=C(O)c1cn(CCF)c2cc3c(cc2c1=O)OCO3 [Compound (7)] | 0 | 0 |  | 0 |  |  |
| O=C(O)c1cn(CCCl)c2cc3c(cc2c1=O)OCO3 [Compound (9)] | 0 | 0 |  | 0 |  |  |
| CCn1cc(C(=O)O)c(=O)c2ccc(C)nc21 [Nalidixic acid, nalidixic acid, reference compound] |  | 100 |  |  | no effect |  |
| [H]/N=C(/N)N[C@H]1[C@H](O)[C@@H](O)[C@H](O[C@@H]2O[C@@H](C)[C@](O)(C=O)[C@H]2O[C@@H]2O[C@@H](CO)[C@H](O)[C@@H](O)[C@@H]2NC)[C@@H](N/C(N)=N\[H])[C@@H]1O [Streptomycin Sulfate, reference compound] |  |  |  |  |  | 14 |
| N=C(NCCCCCCNC(=N)NC(=N)Nc1ccc(Cl)cc1)NC(=N)Nc1ccc(Cl)cc1 [chlorhexidine, reference compound] |  | 100 |  |  | no effect |  |
| Nc1ccc(S(N)(=O)=O)cc1 [sulfamine, reference compound] |  | 100 |  |  | no effect |  |
